For assay [1], the system named is rice blast fungi (Magnaporthe grisea). It counts as in vivo. Particulars: rice blast, spray treatment.
Assay [2] deals with tomato late blight fungi (Phytophthora infestans). It counts as in vivo. Conditions: tomato late blight, spray treatment.
For assay [3], the system named is cucumber anthracnose fungi (Colletotrichum orbiculare). In words: Test Example H: cucumber anthracnose, spray treatment of cucumber plants. Conditions: cucumber anthracnose, 250 ppm spray, 6 to 10 days after inoculation.

Turning to `CC(C)c1ccccc1-n1cc(Cl)c(=O)c(Br)c1-c1c(F)cc(F)cc1F` [Compound 396], the “Test A control value” in assay [1] was “H (H shows the control value of more than 50%)”. For the same molecule, in assay [2], the “Test F control value” was “L (L shows the control value of 50% or less)”. For the same molecule, the “Test H control value” in assay [3] was “L (L shows the control value of 50% or less)”.
With `Cc1cn(-c2ccccc2C(C)C)c(-c2c(F)cc(F)cc2F)c(C)c1=O` [Compound 397], the “Test A control value” in assay [1] was “L (L shows the control value of 50% or less)”. In addition, the “Test F control value” in assay [2] is “L (L shows the control value of 50% or less)”. Besides, the “Test H control value” in assay [3] is “L (L shows the control value of 50% or less)”.
`Cc1ccc(F)cc1-n1cc(Br)c(=O)c(C)c1-c1ccccc1` [Compound 398]: in assay [1], the “Test A control value” is “H (H shows the control value of more than 50%)”. Also, the “Test F control value” in assay [2] was “L (L shows the control value of 50% or less)”. Also, the “Test H control value” in assay [3] is “L (L shows the control value of 50% or less)”.
As for `Cc1ccc(F)cc1-n1cc(Br)c(=O)c(Cl)c1-c1ccccc1` [Compound 399], the “Test A control value” in assay [1] is listed as “L (L shows the control value of 50% or less)”. In assay [2], the “Test F control value” is “L (L shows the control value of 50% or less)”. Moreover, the “Test H control value” in assay [3] is recorded as “H (H shows the control value of more than 50%)”.
With `COc1ccc(C)c(-n2cc(Br)c(=O)c(C)c2-c2ccccc2)c1` [Compound 400], the “Test A control value” in assay [1] is on record as “H (H shows the control value of more than 50%)”. In assay [2], the “Test F control value” was “L (L shows the control value of 50% or less)”. For the same molecule, in assay [3], the “Test H control value” is on record as “H (H shows the control value of more than 50%)”.
As for `COc1cc(F)c(-c2c(C)c(=O)c(C)cn2-c2cc(C)ccc2C)c(F)c1` [Compound 401], the “Test A control value” in assay [1] was “H (H shows the control value of more than 50%)”. Besides, the “Test F control value” in assay [2] is “L (L shows the control value of 50% or less)”. In addition, the “Test H control value” in assay [3] was “H (H shows the control value of more than 50%)”.
Regarding `Cc1ccc(C)c(-n2cc(C)c(=O)c(C)c2-c2c(F)cccc2F)c1` [Compound 402], in assay [1], the “Test A control value” is given as “L (L shows the control value of 50% or less)”. The “Test F control value” in assay [2] is reported as “L (L shows the control value of 50% or less)”. In addition, the “Test H control value” in assay [3] is reported as “L (L shows the control value of 50% or less)”.
Take `Cc1ccc(C)c(-n2cc(C)c(=O)c(C)c2-c2c(F)cc(O)cc2F)c1` [Compound 403]: the “Test A control value” in assay [1] was “L (L shows the control value of 50% or less)”. In addition, the “Test F control value” in assay [2] was “L (L shows the control value of 50% or less)”. Besides, in assay [3], the “Test H control value” is recorded as “L (L shows the control value of 50% or less)”.
Turning to `Cc1ccc(C)c(-n2cc(C)c(=O)c(C)c2-c2ccccc2)c1` [Compound 404], the “Test A control value” in assay [1] is “L (L shows the control value of 50% or less)”. Further, the “Test F control value” in assay [2] was “L (L shows the control value of 50% or less)”. In addition, the “Test H control value” in assay [3] is “L (L shows the control value of 50% or less)”.
For the molecule `C=CCOc1cc(F)c(-c2c(C)c(=O)c(C)cn2-c2cc(C)ccc2C)c(F)c1` [Compound 405], the “Test A control value” in assay [1] was “H (H shows the control value of more than 50%)”. Moreover, the “Test F control value” in assay [2] is “L (L shows the control value of 50% or less)”. For the same molecule, in assay [3], the “Test H control value” is “H (H shows the control value of more than 50%)”.
For the molecule `C#CCOc1cc(F)c(-c2c(C)c(=O)c(C)cn2-c2cc(C)ccc2C)c(F)c1` [Compound 406], the “Test A control value” in assay [1] is listed as “L (L shows the control value of 50% or less)”. The “Test F control value” in assay [2] is listed as “H (H shows the control value of more than 50%)”. For the same molecule, the “Test H control value” in assay [3] is listed as “H (H shows the control value of more than 50%)”.
On to `CC(=O)Oc1cc(F)c(-c2c(C)c(=O)c(C)cn2-c2cc(C)ccc2C)c(F)c1` [Compound 407], for which the “Test A control value” in assay [1] is “L (L shows the control value of 50% or less)”. Moreover, the “Test F control value” in assay [2] was “L (L shows the control value of 50% or less)”. The “Test H control value” in assay [3] is “L (L shows the control value of 50% or less)”.
Consider `Cc1ccc(-c2c(Br)c(=O)c(Br)cn2-c2ccccc2C)cc1` [Compound 408], for which the “Test A control value” in assay [1] was “L (L shows the control value of 50% or less)”. Moreover, the “Test F control value” in assay [2] is on record as “L (L shows the control value of 50% or less)”. For the same molecule, the “Test H control value” in assay [3] was “L (L shows the control value of 50% or less)”.
In the case of `Cc1ccc(-c2c(Cl)c(=O)c(Br)cn2-c2ccccc2C)cc1` [Compound 409], the “Test A control value” in assay [1] is reported as “L (L shows the control value of 50% or less)”. The “Test F control value” in assay [2] is given as “L (L shows the control value of 50% or less)”. For the same molecule, in assay [3], the “Test H control value” is recorded as “L (L shows the control value of 50% or less)”.
Take `Cc1ccc(-c2c(Br)c(=O)c(Cl)cn2-c2ccccc2C)cc1` [Compound 410]: the “Test A control value” in assay [1] is recorded as “L (L shows the control value of 50% or less)”. Besides, in assay [2], the “Test F control value” is “L (L shows the control value of 50% or less)”. Besides, the “Test H control value” in assay [3] is reported as “L (L shows the control value of 50% or less)”.
With `Cc1ccc(-c2c(Cl)c(=O)c(Cl)cn2-c2ccccc2C)cc1` [Compound 411], the “Test A control value” in assay [1] is “L (L shows the control value of 50% or less)”. In addition, the “Test F control value” in assay [2] is reported as “L (L shows the control value of 50% or less)”. The “Test H control value” in assay [3] is reported as “L (L shows the control value of 50% or less)”.
With `Cc1c(F)cccc1-n1cc(Br)c(=O)c(C)c1-c1ccccc1` [Compound 412], the “Test A control value” in assay [1] is recorded as “L (L shows the control value of 50% or less)”. The “Test F control value” in assay [2] was “L (L shows the control value of 50% or less)”. Moreover, in assay [3], the “Test H control value” is given as “L (L shows the control value of 50% or less)”.
For the molecule `Cc1c(F)cccc1-n1cc(Br)c(=O)c(Cl)c1-c1ccccc1` [Compound 413], the “Test A control value” in assay [1] is given as “L (L shows the control value of 50% or less)”. The “Test F control value” in assay [2] is listed as “L (L shows the control value of 50% or less)”. Moreover, the “Test H control value” in assay [3] is reported as “L (L shows the control value of 50% or less)”.
Turning to `COc1cc(-n2cc(Br)c(=O)c(Cl)c2-c2ccccc2)c(C)cc1Br` [Compound 414], the “Test A control value” in assay [1] is reported as “L (L shows the control value of 50% or less)”. Also, the “Test F control value” in assay [2] is “L (L shows the control value of 50% or less)”. Besides, the “Test H control value” in assay [3] is on record as “L (L shows the control value of 50% or less)”.
Regarding `Cc1c(-c2ccccc2)n(-c2cc(F)ccc2Cl)cc(Br)c1=O` [Compound 415], in assay [1], the “Test A control value” is recorded as “H (H shows the control value of more than 50%)”. Also, the “Test F control value” in assay [2] is recorded as “L (L shows the control value of 50% or less)”. In assay [3], the “Test H control value” is on record as “H (H shows the control value of more than 50%)”.
Consider `Cc1cn(-c2cc(F)ccc2Cl)c(-c2ccccc2)c(C)c1=O` [Compound 416], for which the “Test A control value” in assay [1] is “L (L shows the control value of 50% or less)”. In addition, the “Test F control value” in assay [2] was “L (L shows the control value of 50% or less)”. Besides, the “Test H control value” in assay [3] is reported as “H (H shows the control value of more than 50%)”.
Turning to `O=c1c(Br)cn(-c2cc(F)ccc2Cl)c(-c2ccccc2)c1Cl` [Compound 417], the “Test A control value” in assay [1] was “L (L shows the control value of 50% or less)”. The “Test F control value” in assay [2] was “L (L shows the control value of 50% or less)”. Also, the “Test H control value” in assay [3] is on record as “H (H shows the control value of more than 50%)”.
Regarding `O=c1c(Br)cn(-c2cc(F)ccc2Cl)c(-c2ccccc2)c1Br` [Compound 418], the “Test A control value” in assay [1] is on record as “L (L shows the control value of 50% or less)”. For the same molecule, the “Test F control value” in assay [2] is recorded as “L (L shows the control value of 50% or less)”. In addition, in assay [3], the “Test H control value” was “H (H shows the control value of more than 50%)”.
For `Cc1c(O)cccc1-n1cc(Br)c(=O)c(Br)c1-c1c(F)cc(F)cc1F` [Compound 419], in assay [1], the “Test A control value” is reported as “L (L shows the control value of 50% or less)”. Besides, the “Test F control value” in assay [2] is reported as “L (L shows the control value of 50% or less)”. In addition, the “Test H control value” in assay [3] was “H (H shows the control value of more than 50%)”.
For `Cc1c(-n2cc(Cl)c(=O)c(Cl)c2-c2c(F)cc(F)cc2F)cccc1[N+](=O)[O-]` [Compound 420], the “Test A control value” in assay [1] was “L (L shows the control value of 50% or less)”. Moreover, the “Test F control value” in assay [2] is given as “L (L shows the control value of 50% or less)”. Also, the “Test H control value” in assay [3] is “H (H shows the control value of more than 50%)”.
As to `Cc1c(N)cccc1-n1cc(Cl)c(=O)c(Cl)c1-c1c(F)cc(F)cc1F` [Compound 421], in assay [1], the “Test A control value” is recorded as “L (L shows the control value of 50% or less)”. In assay [2], the “Test F control value” is on record as “L (L shows the control value of 50% or less)”. In addition, the “Test H control value” in assay [3] was “L (L shows the control value of 50% or less)”.
As for `CCOc1cccc(-n2cc(Br)c(=O)c(Br)c2-c2c(F)cc(F)cc2F)c1C` [Compound 422], the “Test A control value” in assay [1] was “H (H shows the control value of more than 50%)”. For the same molecule, the “Test F control value” in assay [2] is recorded as “L (L shows the control value of 50% or less)”. Moreover, the “Test H control value” in assay [3] is reported as “H (H shows the control value of more than 50%)”.
Take `CCCOc1cccc(-n2cc(Br)c(=O)c(Br)c2-c2c(F)cc(F)cc2F)c1C` [Compound 423]: the “Test A control value” in assay [1] is recorded as “L (L shows the control value of 50% or less)”. Also, the “Test F control value” in assay [2] was “L (L shows the control value of 50% or less)”. Besides, the “Test H control value” in assay [3] is recorded as “H (H shows the control value of more than 50%)”.
For the molecule `CC(=O)Nc1cccc(-n2cc(Cl)c(=O)c(Cl)c2-c2c(F)cc(F)cc2F)c1C` [Compound 424], in assay [1], the “Test A control value” is “H (H shows the control value of more than 50%)”. Further, the “Test F control value” in assay [2] was “L (L shows the control value of 50% or less)”. In assay [3], the “Test H control value” is recorded as “L (L shows the control value of 50% or less)”.

(Values after US11000038B2, “Pyridone compounds and agricultural and horticultural fungicides containing the same as active ingredients” (priority 2017, dated 2021).)
